Experimental findings from PubChem BioAssay AID1508642 (National Center for Advancing Translational Sciences (NCATS), 2021) are described below.

About 200 (0.47%) of roughly 43,000 compounds were called active. Inconclusive results (about 12%) are left out. Calls come from the whole dose curve; as a rule, active = well fitted cell-killing curve with a large enough effect; inconclusive = small, poorly fitted or top-dose-only effect, or effect the other way; inactive = flat fitted curve, though single readings scatter. This is one part of the list.
% is set by controls: 0 for no effect and ±100 for the full control effect.

The assay in a line: Cell viability qHTS assay in S16 Pmp22-F2sN cells. Note: nearly all actives have a fitted effect of over 65% in size. To be noted: S16 Pmp22-F2sN Schwann cells (luciferase reporters placed in the Pmp22 gene) viability, CellTiter-Glo, 24 h; series mostly up to 57.5 µM; activity change, negative = cytotoxicity: at the top concentration. In a few lines:
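Rat S16 Schwann reporter line, 24 h treatment with library compounds delivered at 23 nL per well. Cell viability by CellTiter-Glo luminescence.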
On to `COc1cccc(Cn2c(=O)n(-c3ccc(C)c(F)c3)c(=O)c3sc4ccccc4c32)c1`, for which the “activity change, negative = cytotoxicity” value was inactive: 21.5%.

With `Cc1ccc2oc(C(=O)N(Cc3cccc(F)c3)C3CCS(=O)(=O)C3)c(C)c2c1` (stereo unspecified), the “activity change, negative = cytotoxicity” value is inactive: 4.07%.

As for `COc1ccc(N2CCN(C(=O)c3cc(S(=O)(=O)N4CCCCCC4)cn3C)CC2)cc1`, the “activity change, negative = cytotoxicity” value is inactive: 24.5%.

Consider `O=C(COC(=O)C(Cc1c[nH]c2ccccc12)NC(=O)c1ccc(Br)cc1)c1ccc(Cl)cc1` (stereo unspecified), for which the “activity change, negative = cytotoxicity” value was inactive: 4.13%.

As for `Cc1ccc(N(CC(C)C)S(=O)(=O)c2nnc(NC(=O)c3ccco3)s2)cc1`, the “activity change, negative = cytotoxicity” value was inactive: -0.873%.

For the compound `Cc1ccc(-c2cc(C(F)(F)F)n3nc(-c4ccc(Cl)cc4)cc3n2)cc1`, the “activity change, negative = cytotoxicity” value was inactive: 2.57%.

Regarding `COc1ccc(CNC(=O)C2CCN(Cc3nc(-c4ccc(OC)c(OC)c4)oc3C)CC2)cc1`, the “activity change, negative = cytotoxicity” value was inactive: 9.77%.

Take `COc1cccc(OC)c1C(=O)Nc1nnc(C)s1`: the “activity change, negative = cytotoxicity” value is inactive: 8.16%.

`CSc1cccc(-c2nnc(NC(=O)c3ccc4c(c3)OCCO4)o2)c1`: the “activity change, negative = cytotoxicity” value is inactive: -17%.

Regarding `CC(C)CC(=O)NCc1nc2cccnc2n1Cc1ccccc1`, the “activity change, negative = cytotoxicity” value is inactive: 11.2%.

For the compound `CCOC(=O)c1cc(-c2ccccc2)n(CC(=O)Nc2ccc(OC)cc2OC)c1C`, the “activity change, negative = cytotoxicity” value is inactive: -8.12%.

Take `COc1ccc(-c2ccc(NS(=O)(=O)c3cccc(Cl)c3)cc2)nn1`: the “activity change, negative = cytotoxicity” value is inactive: 4.24%.

`COc1cccc(CNC(=O)CSc2c3c(nc4ccc(Cl)cc24)CCCC3)c1OC`: the “activity change, negative = cytotoxicity” value is inactive: 23.6%.

As to `CCOC(=O)c1c(C)[nH]c(C)c1S(=O)(=O)N1CCCC(C(=O)Nc2ccc(OC)c(Cl)c2)C1` (stereo unspecified), the “activity change, negative = cytotoxicity” value was inactive: 29.3%.

On to `O=C(Cn1ncc2c3ccccc3n(Cc3ccccc3F)c2c1=O)NCCc1ccc(Cl)cc1`, for which the “activity change, negative = cytotoxicity” value is inactive: 7.11%.

In the case of `Cc1ccccc1Nc1nnc(-c2ccc(C)c(S(=O)(=O)N3CCOCC3)c2)c2ccccc12`, the “activity change, negative = cytotoxicity” value was inactive: 7.16%.

For the compound `COc1ccc(CN2COc3ccc4c(-c5ccccc5)cc(=O)oc4c3C2)cc1`, the “activity change, negative = cytotoxicity” value was inactive: 15.6%.

Consider `Cc1cccc(N2CCN(C(=O)C3CCN(S(=O)(=O)c4cccs4)CC3)CC2)c1C`, for which the “activity change, negative = cytotoxicity” value was inactive: -0.811%.

Consider `COc1ccc(OC)c(NC(=O)Cn2cnc3c(oc4ccccc43)c2=O)c1`, for which the “activity change, negative = cytotoxicity” value was inactive: -3.17%.

As for `CC1=C(C(=O)Nc2ccc(C)cc2C)C(c2ccc(Cl)cc2)n2nc(C(=O)OC(C)C)nc2N1` (stereo unspecified), the “activity change, negative = cytotoxicity” value is inactive: -3.42%.

In the case of `O=C(Cn1cnc(S(=O)(=O)N2CCCC2)c1)Nc1ccc(OC(F)(F)F)cc1`, the “activity change, negative = cytotoxicity” value is inactive: 27.5%.

Regarding `CCc1ccc(NC(=O)c2cc3sc(Cl)cc3n2C)cc1`, the “activity change, negative = cytotoxicity” value was inactive: 1.45%.

`COc1cccc(C(=O)Nc2c(C(=O)NC(C)(C)C)oc3ccccc23)c1`: the “activity change, negative = cytotoxicity” value was inactive: 14.9%.

For `Cc1ccc(CCNC(=O)Cn2c(-c3cccs3)cc3cc(F)ccc32)cc1`, the “activity change, negative = cytotoxicity” value is inactive: 12.9%.

For `CN(C)c1ccc(CNC(=O)CN(C)S(=O)(=O)c2ccc3c(c2)c(=O)n(C)c(=O)n3C)cc1`, the “activity change, negative = cytotoxicity” value is inactive: 14.6%.

Turning to `Cc1ccc(CNC(=O)Cn2ccn(-c3ccc(C)c(C)c3)c(=O)c2=O)cc1`, the “activity change, negative = cytotoxicity” value was inactive: -8.09%.

For the compound `COc1ccc(CC(=O)NCc2ccc3c(c2)CCN3C(=O)c2ccc(C)cc2)cc1OC`, the “activity change, negative = cytotoxicity” value was inactive: -24.8%.

For `O=C(Cn1ncc2c(=O)oc3ccccc3c21)NCc1ccccc1Cl`, the “activity change, negative = cytotoxicity” value was inactive: 14.2%.

With `CCc1cccc(NC(=O)Cn2c(=O)n(CCc3ccc(OC)c(OC)c3)c(=O)c3ccccc32)c1`, the “activity change, negative = cytotoxicity” value is inactive: 13.8%.

For `CCCCOc1ccc(S(=O)(=O)N2CCN(c3ccccc3OCC)CC2)cc1`, the “activity change, negative = cytotoxicity” value was inactive: -0.799%.

Take `COc1ccc(Cl)cc1NC(=O)CN(C)S(=O)(=O)c1ccc(Br)s1`: the “activity change, negative = cytotoxicity” value was inactive: -24.9%.

Regarding `O=C(NCC(c1ccccc1)c1ccccc1)c1nn(-c2ccccc2Cl)nc1CO`, the “activity change, negative = cytotoxicity” value was inactive: -10.8%.

With `CCOc1ccccc1NC(=O)c1sc(-n2nc(C)c(CCC(C)C)c2C)nc1C`, the “activity change, negative = cytotoxicity” value was inactive: -11.9%.

On to `Cc1ccc(Cl)cc1N1CCN(C(=O)c2ccc3c(c2)N(Cc2ccccc2F)C(=O)c2ccccc2S3(=O)=O)CC1`, for which the “activity change, negative = cytotoxicity” value was inactive: 15%.

On to `Cc1nc2c(C(=O)N(C)Cc3ccccc3)c[nH]n2c(=O)c1Cc1ccc(Cl)cc1`, for which the “activity change, negative = cytotoxicity” value is inactive: 5.56%.

As to `O=C(Nc1cccc(Cl)c1)Nc1ccccc1OCc1cc(=O)n2ccccc2n1`, the “activity change, negative = cytotoxicity” value was inactive: 12.1%.

In the case of `CCC1CCCCN1CCCNC(=O)CN1C(=O)CSc2ccc(S(=O)(=O)N3CCC(C)CC3)cc21` (stereo unspecified), the “activity change, negative = cytotoxicity” value is inactive: -27.4%.

`Cc1cc(C)c2oc(-c3cccc(NC(=O)c4ccco4)c3)nc2c1`: the “activity change, negative = cytotoxicity” value is inactive: 4.28%.

`COCCCNC(=O)CCC(=O)N1Cc2ccccc2Oc2ncccc21`: the “activity change, negative = cytotoxicity” value is inactive: -7.22%.

With `Cc1cc2c(c3oc(=O)c4ccccc4c13)CN(Cc1ccc(F)cc1)CO2`, the “activity change, negative = cytotoxicity” value is inactive: 0.432%.

On to `Cc1ccc(N2CCN(C(=O)CCc3c(C)nc4c(c3C)c(=O)n(C)c(=O)n4C)CC2)c(C)c1`, for which the “activity change, negative = cytotoxicity” value is inactive: 11.7%.

`O=C(CCn1cnc2ccccc2c1=O)NCc1ccccc1`: the “activity change, negative = cytotoxicity” value is inactive: 1.3%.

As for `O=S(=O)(c1ccc2[nH]c3c(c2c1)CCCCC3)N1CCN(c2ccccc2)CC1`, the “activity change, negative = cytotoxicity” value is inactive: -7.48%.

Take `COc1cccc(CNC(=O)c2cc(-c3cccc(OC)c3)n[nH]2)c1`: the “activity change, negative = cytotoxicity” value is inactive: -16.6%.

Consider `Cc1cccc(C)c1NC(=O)c1oc2c(c1C)-c1nn(Cc3ccccc3)cc1CC2`, for which the “activity change, negative = cytotoxicity” value was inactive: -14.2%.

For the compound `CCCSCCCNC(=O)CN1C(=O)COc2ccc(S(=O)(=O)N3CCC(C)CC3)cc21`, the “activity change, negative = cytotoxicity” value is inactive: 8.81%.

As for `CN1C(=O)Cc2cc(S(=O)(=O)CCC(=O)Nc3ccccc3)ccc21`, the “activity change, negative = cytotoxicity” value is inactive: -7.26%.

For the compound `CCN(CC)CCCNC(=O)Cn1nc(N2CCN(c3ccccc3OC)CC2)ccc1=O`, the “activity change, negative = cytotoxicity” value was inactive: 3.25%.

Consider `COc1cc(OC)c(N(C)C(=O)c2nn(C)c3c2CSc2ccccc2-3)cc1Cl`, for which the “activity change, negative = cytotoxicity” value is inactive: 5.91%.

Turning to `CC(=O)C1=C(c2ccc(Cl)c(Cl)c2)N(C(C)=O)n2c(C)nnc2S1`, the “activity change, negative = cytotoxicity” value is inactive: -10.8%.

On to `O=C(Nc1ccccc1Br)N1CCN2CCCCC2C1` (stereo unspecified), for which the “activity change, negative = cytotoxicity” value is inactive: 7.99%.

Turning to `Cc1ccc(S(=O)(=O)Nc2ccc3c(c2)c(C(=O)OC(C)C)c(C)n3S(=O)(=O)c2ccc(C)cc2)cc1`, the “activity change, negative = cytotoxicity” value is inactive: 0.736%.

In the case of `COc1ccc(S(=O)(=O)NCCc2cn3ccsc3n2)cc1`, the “activity change, negative = cytotoxicity” value is inactive: 18%.

For the compound `CC(=O)c1ccc(NC(=O)c2ccc(CN3C(=O)CCn4nc(C)cc43)cc2)cc1`, the “activity change, negative = cytotoxicity” value was inactive: -0.163%.

Take `O=S(=O)(Nc1ccc(Br)cc1)c1ccc2nc(-c3ccccc3)[nH]c2c1`: the “activity change, negative = cytotoxicity” value was inactive: -29.6%.

As to `Cc1ccc(CCNC(=O)CN2CCN(Cc3ccc(Cl)cc3)C2=O)cc1`, the “activity change, negative = cytotoxicity” value was inactive: 10.2%.

Turning to `COc1ccc(CCNC(=O)Cn2ccc3cc(S(=O)(=O)N4CCCCC4)ccc32)cc1OC`, the “activity change, negative = cytotoxicity” value is inactive: -3.64%.

For the compound `COC(=O)c1ccccc1NC(=O)c1cc(=O)c2ccc(C)c(C)c2o1`, the “activity change, negative = cytotoxicity” value was inactive: -28.8%.

With `Cc1nn2c(=O)cc(COC(=O)c3ccc(F)cc3)nc2s1`, the “activity change, negative = cytotoxicity” value is inactive: -3.6%.

Regarding `CCc1ccc(NC(=O)CN2C(=O)CCSc3ccc(S(=O)(=O)N4CCCC4)cc32)cc1`, the “activity change, negative = cytotoxicity” value was inactive: 0.936%.

For `COc1ccc(C(=O)c2cn(Cc3cccc(C)c3)c3cc4c(cc3c2=O)OCCO4)cc1OC`, the “activity change, negative = cytotoxicity” value was inactive: -6.93%.
